From PubChem BioAssay AID493208 (National Center for Advancing Translational Sciences (NCATS), 2011)
About 340 (0.77%) of roughly 44,000 compounds were called active. Inconclusive results (about 5%) are left out. Calls come from the whole dose curve; as a rule, active = well fitted inhibition curve with a large enough effect; inconclusive = small, poorly fitted or top-dose-only effect; inactive = flat fitted curve, though single readings scatter. Some of the results follow.

Experiment: Acumen qHTS Assay for Inhibitors of the mTORC1 Signaling Pathway in MEF (Tsc2-/-, p53-/-) Cells: Sytravon;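 note: plate controls were DMSO for no effect and rapamycin for full effect; nearly all actives have a fitted effect of over 50% in size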
Conditions: phospho-rpS6 immunofluorescence/PI, 24 h; series mostly up to 38.3 µM; activity change, negative = inhibition: at the top concentration
How it was run: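 Readout is phospho-S6 Alexa 488 signal normalized to PI per well, reported as % active cells with thresholds set from rapamycin (7.5 nM) and DMSO controls. Cells: Tsc2-/-, p53-/- MEFs, 24 hrs compound at 37 C; PI cell number serves as viability.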

Activity change, negative = inhibition, inactive:
COc1ccc(N2CCN(c3oc(/C=C/c4cc(OC)c(OC)c(OC)c4)nc3C#N)CC2)cc1 -1.15%
COc1cc(C(=O)Nc2ccc3oc(-c4ccc(C)c(Br)c4)nc3c2)cc(OC)c1OC 13.9%
COc1ccc(F)cc1S(=O)(=O)NCCc1sc2nc(-c3ccc(F)cc3)nn2c1C -3.13%
CCc1nnc(SCC(=O)Nc2ccc(F)cc2F)c2cc3sc(C)cc3n12 -2.33%
CCOC(=O)c1ccccc1NC(=O)N(C)CCc1c(C)nn(CC)c1C 0%
Cc1cc(C)cc(Oc2nc3c(c(=O)n(C)c(=O)n3C)n2Cc2ccc(F)cc2)c1 -2.93%
Cc1cc(C)c2c(CC(=O)Nc3c(C(=O)Nc4ccc(Cl)cc4)oc4ccccc34)coc2c1 5.78%
COc1ccc(CNC(=O)CN2C(=O)c3cccnc3Oc3ccc(C)cc32)cc1 -15.2%
Cc1cc(OCC(=O)N(Cc2sccc2C)C2CCS(=O)(=O)C2)ccc1Cl (stereo unspecified) 1.2%
COc1ccc(Nc2cc(C(=O)NCc3ccccc3OC)c3ccccc3n2)cc1 -5.76%
CCCSCCCNC(=O)c1ccc2nc(Cc3ccccc3)oc2c1 -3.23%
CCSc1ncc(Cl)c(C(=O)Nc2ccc(S(=O)(=O)N(C)c3ccccc3)cc2)n1 -3.08%
Cc1cc(Nc2cccc(Cl)c2)nc2ccc(NC(=O)c3cccnc3)cc12 -3.19%
CCc1ccc(CNC(=O)CN2CCSc3ccccc32)cc1 9.98%
Cc1ccc(NC(=O)C(=O)NCC2(c3ccccc3)CCCC2)cc1Cl 1.05%
O=C(NCCc1ccccc1)c1cnn(-c2ccc(F)cc2)c1-n1cccc1 -6.05%
CCOC(=O)N1CCc2c(sc3c2c(=O)n(CCc2ccccc2)c(=O)n3Cc2c(F)cccc2Cl)C1 2.47%
O=C(CN1C(=O)COc2ccc(S(=O)(=O)N3CCCCCC3)cc21)NCc1ccc(F)cc1 -9.07%
Cc1cc(C)c2c(CC(=O)N(Cc3ccccc3)C3CCS(=O)(=O)C3)coc2c1 (stereo unspecified) -6.84%
CCC(=O)N1CCc2cc(S(=O)(=O)NC(C(=O)Nc3ccc(C(C)=O)cc3)C(C)C)ccc21 (stereo unspecified) 0.205%
Cn1c(=O)oc2cc(S(=O)(=O)Nc3ccc(C(=O)O)cc3)ccc21 -1.34%
CCC(=O)N1CCc2cc(Br)cc(S(=O)(=O)N3CCCC(C(=O)N(C)c4ccc(Br)cc4)C3)c21 (stereo unspecified) -11.3%
COc1ccccc1CNC(=O)c1ccc(-c2nc(CN3CCc4ccccc43)c(C)o2)cc1 -26.5%
Cc1ccc(OCC(=O)Nc2ccc3nc(SCC(=O)N4CCc5ccccc54)sc3c2)cc1 -0.22%
COc1ccc(NC(=O)c2cccn2-c2nnc(N3CCCCC3)s2)cc1 -2.7%
CCOC(=O)C1CCCN(c2nc3c(S(=O)(=O)c4ccc(C)c(C)c4)nnn3c3ccc(Cl)cc23)C1 (stereo unspecified) -4.39%
CCn1c(=O)c2sccc2n2c(CCC(=O)Nc3cc(C)cc(C)c3)nnc12 6.44%
Cc1ccc(Cl)cc1N1CCN(c2ncnc3onc(C)c23)CC1 3.18%
Clc1ccc(N2CCN(c3ncnc4c3nc3n4CCCC3)CC2)cc1 -5.85%
COc1ccc(-c2nc(CS(=O)CC(=O)NCc3ccccc3OC)c(C)o2)cc1 (stereo unspecified) -7.73%
COc1cccc(N2CCN(C(=O)C3CCN(S(=O)(=O)c4ccc5c(c4)oc(=O)n5C)CC3)CC2)c1 -1.18%
COc1ccc2c(c1)CC(C(=O)NCCCN1CCN(c3ccc(F)cc3)CC1)CO2 (stereo unspecified) 1.06%
COc1cccc(C(=O)Nc2cc3c(cc2C(=O)c2ccc(C)cc2)OCCO3)c1 2.59%
CCOc1ccc(CCNC(=O)CN2C(=O)C(CC)Oc3ccccc32)cc1OCC (stereo unspecified) 10.2%
COc1ccc(C(=O)NCc2nnc(SCC(=O)Nc3ccccc3)n2-c2ccc(F)cc2)cc1 -6.64%
COc1ccc(OC)c(NC(=O)CSc2ccnc(=O)[nH]2)c1 -3.02%
Cn1c(=O)oc2cc(S(=O)(=O)CCC(=O)N3CCN(c4ccccc4)CC3)ccc21 4.11%
COc1ccccc1-c1cc(C(=O)Nc2sc3c(c2C#N)CCCC3)no1 7.75%
COc1ccccc1N1CCN(S(=O)(=O)c2c(C)sc3ncn(CC(=O)Nc4cccc(Cl)c4)c(=O)c23)CC1 -9.58%
COC(=O)c1c(-c2ccc(Cl)cc2)noc1N1CCN(c2ccc(OC)cc2)CC1 1.52%
Cc1ccc2c(c1)NC(=O)C(CC(=O)Nc1cc(Cl)ccc1C)O2 (stereo unspecified) -5.13%
COc1ccc(C2CC(c3c(O)n(C4CCCCC4)c(=O)[nH]c3=O)=Nc3ccccc3S2)cc1 (stereo unspecified) -0.559%
CCc1nn2c(=O)cc(COC(=O)CNC(=O)c3ccccc3)nc2s1 -5.12%
O=C(Nc1ccc(Br)cc1)C1CCN(c2cnccn2)CC1 1.25%
COc1cc(OC)c(Nc2cc(C)nc3ncnn23)cc1Cl -19.8%
CCOc1ccc(C(=O)Nc2cccc(NC(=O)c3ccco3)c2)cc1Cl 7.53%
COc1ccccc1CNC(=O)c1ccc(N2CCCC2)c(NC(=O)NCc2ccccc2)c1 17.9%
CCN(CC)S(=O)(=O)c1nnc(NC(=O)COc2ccccc2Cl)s1 1.76%
O=C(COc1ccccc1F)OCc1cc(=O)n2nc(-c3cccs3)sc2n1 0%
NC(=O)c1cc(S(=O)(=O)N2CCN(c3ccc(F)cc3)CC2)cs1 -9.2%
CCC(CC)c1nn2c(=O)cc(COc3ccc(NC(=O)c4ccccc4Cl)cc3)nc2s1 2.9%
Cc1ccccc1CNC(=O)C1CCN(c2nn3cc(-c4ccc(F)cc4)nc3s2)CC1 -0.404%
CC1CCCCN1CCCNC(=O)Cn1ncc2c([nH]c3ccccc32)c1=O (stereo unspecified) -1.23%
Cc1cccc(CNS(=O)(=O)c2ccc3[nH]c(=O)ccc3c2)c1 -2.99%
COc1ccc(Cn2c(=O)[nH]c3cc(C(=O)N4CCN(c5cc(C)ccc5C)CC4)ccc3c2=O)cc1 2.76%
COc1ccc(-c2cnnn2-c2ccc(NC(=O)c3c(F)cccc3F)cc2)cc1 -1.14%
COc1ccc(-c2cnnn2-c2ccc(NC(=O)c3ccc(S(=O)(=O)N(C)C)cc3)cc2)cc1 8.12%
CC(=O)c1cc(-c2ccccc2)n(CC(=O)NC2CCCCC2)c1C -8.51%
CCOC(=O)c1cnc2cc(-c3ccc(Cl)cc3)nn2c1-c1ccccc1 -2.11%
CC(C)Cn1c(=O)c2ccccc2n2c(CCC(=O)Nc3cccc(Cl)c3)nnc12 -5.25%
CCCOc1ccc(-c2nn(-c3ccccc3)cc2C2NC(=O)NC(C)=C2C(=O)OC(C)C)cc1 (stereo unspecified) -0.715%
